The whole screen tested about 310,000 compounds, of which about 2,200 (0.71%) showed an effect of 50% or more. Effects have a minus sign here. Some of the results follow.
These compounds were tested against human ether-à-go-go-related gene (hERG) potassium channel (human, UniProt Q12809) (assay: primary screen, population patch clamp on CHO cells stably expressing hERG).
human ether-à-go-go-related gene (hERG) potassium channel, sequence (Q12809 whole entry, looked up): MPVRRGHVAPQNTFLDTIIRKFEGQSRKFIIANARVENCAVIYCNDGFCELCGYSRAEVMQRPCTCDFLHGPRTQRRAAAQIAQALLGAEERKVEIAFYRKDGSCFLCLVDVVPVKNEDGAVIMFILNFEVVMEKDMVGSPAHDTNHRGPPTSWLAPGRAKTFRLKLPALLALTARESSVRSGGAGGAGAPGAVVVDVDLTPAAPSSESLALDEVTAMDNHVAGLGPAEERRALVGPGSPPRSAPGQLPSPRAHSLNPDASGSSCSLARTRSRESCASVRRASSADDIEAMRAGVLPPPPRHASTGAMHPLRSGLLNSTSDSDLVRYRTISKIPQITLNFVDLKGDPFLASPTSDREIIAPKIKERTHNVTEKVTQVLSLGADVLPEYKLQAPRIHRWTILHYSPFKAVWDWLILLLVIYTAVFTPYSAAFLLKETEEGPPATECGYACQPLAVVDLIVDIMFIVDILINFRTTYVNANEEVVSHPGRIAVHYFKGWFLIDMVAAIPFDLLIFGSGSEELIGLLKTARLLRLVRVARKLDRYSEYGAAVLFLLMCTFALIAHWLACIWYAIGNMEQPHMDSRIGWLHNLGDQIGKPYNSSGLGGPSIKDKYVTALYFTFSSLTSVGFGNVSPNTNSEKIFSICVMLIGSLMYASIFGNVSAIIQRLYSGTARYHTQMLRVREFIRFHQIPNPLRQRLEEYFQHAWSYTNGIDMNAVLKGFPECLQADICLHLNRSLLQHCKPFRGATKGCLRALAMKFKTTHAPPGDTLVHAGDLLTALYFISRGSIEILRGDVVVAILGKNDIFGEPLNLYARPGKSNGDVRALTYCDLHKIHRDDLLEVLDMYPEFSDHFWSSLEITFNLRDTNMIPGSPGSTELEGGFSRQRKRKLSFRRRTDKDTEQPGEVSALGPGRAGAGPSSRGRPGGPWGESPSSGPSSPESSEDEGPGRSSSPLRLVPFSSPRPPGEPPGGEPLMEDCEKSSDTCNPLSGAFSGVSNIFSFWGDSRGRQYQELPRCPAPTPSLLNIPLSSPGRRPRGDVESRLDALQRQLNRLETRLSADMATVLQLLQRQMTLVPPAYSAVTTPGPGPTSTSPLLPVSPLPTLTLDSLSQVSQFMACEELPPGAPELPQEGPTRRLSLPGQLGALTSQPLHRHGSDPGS

| Compound | hERG current change (%, negative = inhibition) at 1uM [%] |
| --- | --- |
| C/C(Cc1ccccc1)=N\NC(=O)CNC(=O)c1ccccc1F | 13.1 |
| Cc1ccc(NC(=O)C2CCCN2C(=O)OC(C)(C)C)cc1C (centres unmarked) | 8.59 |
| O=C(CN1CCN(S(=O)(=O)c2ccc(F)cc2)CC1)Nc1ccc2c(c1)OCCO2 | -1.24 |
| CC(=O)N1CCc2cc(S(=O)(=O)NC(Cc3ccccc3)C(=O)Nc3cc(C)ccn3)ccc21 (centres unmarked) | -5.1 |
| Cn1c(SCC(=O)Nc2cccc3ccccc23)nc(O)cc1=O | 1.37 |
| Brc1cccc(/C=N/Nc2nc(N3CCCCC3)nc(N3CCCCC3)n2)c1 | 9.78 |
| CC1=N/C(=C/c2cc(Br)cc(Br)c2O)C(=O)O1 | 13.5 |
| c1ccc(CSc2nnc(-c3ccco3)n2Cc2ccco2)cc1 | -7.98 |
| Cc1ccccc1-n1cc[nH]c1=S | 4.22 |
| CCOc1ccc(S(=O)(=O)NCCC(=O)NCC2COc3ccccc3O2)cc1 (centres unmarked) | 11.3 |
| CCn1c(NC(=O)c2ccc(F)cc2)c2ccccc2nc1=O | 2.14 |
| CN(Cc1ccccc1)c1nc(N)c([N+](=O)[O-])c(Nc2cccc(F)c2)n1 | 5.53 |
| COc1cccc(N2CCN(CC(=O)Nc3nnc(-c4ccccc4)s3)CC2)c1 | 0.494 |
| COC(=O)CSc1ncnc2c(C)csc12 | 14.4 |
| Cn1c2ccccc2c2c(C(=O)N3CCC4(CC3)OCCO4)cn(C3CCCC3)c(=O)c21 | 4.27 |
| O=C(CCc1ccccc1)NCc1ccccc1 | -1.14 |
| O=C(CNC(=O)c1ccco1)OC(C(=O)c1ccccc1)c1ccccc1 (centres unmarked) | -0.922 |
| COc1cc(COCC(O)CN2CCN(Cc3ccc4c(c3)OCO4)CC2)cc(OC)c1OC.Cl (centres unmarked) | 16.1 |
| COc1ccccc1OCCNC(=O)CCNC(=O)c1ccccc1OC | 7.45 |
| Nc1c(C(=O)NCCc2ccc(Cl)cc2)sc2ccc(S(=O)(=O)N3CCCCC3)cc12 | 7.2 |
| O=C(NC1CC2CCCC(C1)N2C(=O)Nc1ccccc1Cl)C1CC1 (centres unmarked) | 16.6 |
| CC(=O)c1cc(N2CCC(C(=O)O)CC2)ccc1[N+](=O)[O-] | 11.9 |
| CCOC(=O)c1c2n(c3ccc(OC(C)=O)cc13)CCC2 | 7.87 |

| Compound | hERG current change (%, negative = inhibition) at 1uM [%] |
| --- | --- |
| COc1ccc(S(=O)(=O)Nc2ccc(F)cc2)cc1N(C)S(=O)(=O)c1ccc(Cl)cc1 | 13.3 |
| COc1ccc(NC(=O)c2cc(C3CC3)nc3c2cnn3C(C)C)cc1OC | 2.09 |
| CCOC(=O)C1(Cc2ccc(OC)cc2)CCN(C(=O)CC2CCC(=O)N2)CC1 (centres unmarked) | 15.5 |
| Cc1ccc(-c2cc(C(=O)NCc3ccco3)no2)cc1 | 14.4 |
| COc1cc2c(cc1OC)[C@@H]1Cc3ccc(OC)c(OC)c3CN1CC2.Cl | 10.9 |
| Cl.O=c1c2[nH]c3ccc(F)cc3c2ncn1C1CCCCC1 | 14.9 |
| O=C(Nc1ccccc1C(=O)O)c1cccc(F)c1 | 10.3 |
| CCCC(c1nnnn1C(C)(C)CC)N(CCCO)Cc1cc2cc(C)cc(C)c2[nH]c1=O (centres unmarked) | 1.35 |
| Cc1oc(-c2cc(F)ccc2F)nc1CN1CCN(C)C(=O)[C@@H]1C | 7.77 |
| COc1ccc(C(CNC(=O)CNS(=O)(=O)c2ccc(NC(C)=O)cc2)N2CCOCC2)cc1 (centres unmarked) | 9.53 |
| CCOC(=O)Cc1nn(Cc2ccc(Cl)cc2)c(=O)c2ccccc12 | 12.6 |
| O=S(=O)(NCc1ccccn1)c1cc(Cl)ccc1Cl | 12.5 |
| CCc1ccc(C(=O)CN2C(=O)NC(C)(c3ccc(C)cc3)C2=O)cc1 (centres unmarked) | 11.6 |
| CC(C)Cc1cc(C(=O)Nc2cccnc2)no1 | 4.88 |
| O=C(/C=C/c1ccccc1F)c1ccoc1 | 3.53 |
| COc1ccc(N(Cc2cc(=O)[nH]c3ccccc23)C(=O)c2ccco2)cc1 | 8.05 |
| CC(C)(C)c1ccc(C(=O)c2c[nH]c(C(=O)NCc3cccs3)c2)cc1 | 18.6 |
| CC(C)(C)C(=O)C(Oc1cccc2nonc12)n1cncn1 (centres unmarked) | 0.757 |
| CC1CCC(NC(=O)c2cc3c(=O)n(C)c4ccccc4c3n2C)CC1 (centres unmarked) | 3.84 |
| CCN(CC)CCCNC(=O)c1ccc2c(Cl)c3c(nc2c1)CCCC3 | -10.9 |
| O=C(c1ccc(Cl)cc1)c1cc([N+](=O)[O-])ccc1N1CCOCC1 | 10.3 |
| O=C(c1ccccc1)c1cccc(NC(=O)c2ccc(Br)o2)c1 | -9.49 |
| O=C(CNC(=O)c1ccc(Br)cc1)NCC(=O)OCC(=O)c1ccccc1 | 9.69 |

| Compound | hERG current change (%, negative = inhibition) at 1uM [%] |
| --- | --- |
| COc1ccc(Sc2nc(-c3ccccc3)ncc2OC)cc1 | 13.3 |
| Cc1cc(C(=O)NNC(=O)c2cccs2)c(C)o1 | 5.64 |
| CCOc1ccc(NC(=S)NN2CCN(C)CC2)cc1 | 12.2 |
| c1ccc(N2CCOCC2)c(Nc2nc3ccccc3n3cnnc23)c1 | 9.55 |
| Cc1ccc(Cl)cc1NC(=O)c1ccccc1OCC(=O)N1CCOCC1 | -12 |
| Cc1ccc(N=CC2=C(O)CC(c3cccc(Cl)c3)CC2=O)cc1 (centres unmarked) | 7.47 |
| COc1ccccc1CCC(=O)Nc1nccs1 | 15.3 |
| Cc1ccc(S(=O)(=O)N2CCOCC2)cc1C(=O)c1nccn1C | 12.4 |
| CCSc1nnc2ccc(-c3ccco3)nn12 | 10.3 |
| CC(C)N(Cc1cc2ccccc2[nH]c1=O)C(=O)c1ccco1 | 11.1 |
| O=C(CCc1nc2ccccc2c(=O)[nH]1)NNC(=O)COc1ccccc1Cl | 10.4 |
| Cn1c(=O)c2c(ncn2CC(=O)OCC(=O)c2ccc(Cl)cc2)n(C)c1=O | 5.54 |
| Cc1ccc(S(=O)(=O)N2CCC(CN3C(=O)c4cccc5cccc(c45)C3=O)CC2)cc1 | 12.6 |
| Cc1sc2nc(SCC(=O)NCCOCCO)nc(N)c2c1C | 17 |
| O=C(c1ccco1)N1CCN(c2nnc(-c3ccccc3)c3ccccc23)CC1 | -45.8 |
| Cc1ccc(Cl)cc1N1CCN(C(=O)CSc2nnc3n2C(C)(C)Cc2ccccc2-3)CC1 | -26.5 |
| Cc1cccc(CSc2nnc(-c3cnccn3)n2C)c1 | 8.29 |
| COc1ccc(-c2ccc(C#N)c(SCC(=O)Nc3sc4c(c3C#N)CCC4)n2)cc1 | 13.6 |
| CCc1c(C)nc(SCC(=O)NNC(=O)c2ccco2)[nH]c1=O | -8.27 |
| O=C(Nc1ccc(OC(F)F)cc1)c1cc(S(=O)(=O)N2CCOCC2)ccc1F | -13.5 |
| COc1ccc(/C=C/C(=O)OCn2c(SC)nnc(C)c2=O)cc1OC | -4.77 |
| CN(C)c1ccc(C(=O)c2ccc(N(C)C)cc2)cc1 | -5.4 |
| Cc1ccc2nsnc2c1NC(=O)COc1ccccc1 | 3.06 |

| Compound | hERG current change (%, negative = inhibition) at 1uM [%] |
| --- | --- |
| COc1cccc(C(=O)NC2CCN(CC(=O)Nc3nccs3)CC2)c1 | 14.9 |
| Cc1ccc2oc(C(=O)N3CCC(N4CCSCC4)CC3)c(C)c2c1 | 6.76 |
| Cc1ccccc1OCCNC(=S)Nc1ccccc1 | 6.99 |
| O=C(COc1ccc(-c2ccccc2)cc1)N1CCN(C(=O)c2cccnc2)CC1 | -8.87 |
| N/C(=N/[N+](=O)[O-])N1CCN(C(=O)Oc2ccc([N+](=O)[O-])cc2)CC1 | 0.223 |
| COc1cccc(CNC(=O)CCCc2cn(C)c3ccccc23)c1 | 7.93 |
| COc1ccc(NC(=O)/C=C/c2ccccc2)c([N+](=O)[O-])c1 | 12.4 |
| O=C(Nc1ccc(CN2CCOCC2)cc1)c1ccc(F)cc1 | 1.72 |
| Oc1ccc(-c2csc(-c3c[nH]c4ccccc34)n2)c(O)c1 | 4.57 |
| COc1cccc2c(=O)c3c(cnn3C)n(C)c12 | 15.2 |
| NS(=O)(=O)c1ccc(CCNC(=O)COC(=O)CCN2C(=O)C3CC=CCC3C2=O)cc1 (centres unmarked) | 6.31 |
| O=C(Nc1cccc(-c2cn3cccnc3n2)c1)c1cccs1 | 14.3 |
| Cc1ccc(OCC(=O)NN=C2C3CC4CC(C3)CC2C4)cc1 | 9.61 |
| COC(=O)[C@@H]1CC[C@@](C)(c2ccc(OC)cc2)C1(C)C | 6.9 |
| O=C(NC1CCCCC1)C(c1ccccn1)N(C(=O)Cc1cccs1)c1ccc(Cl)cc1 (centres unmarked) | 6.38 |
| Cn1cc(/C=C/C(=O)c2ccccc2)c2ccccc21 | 13.1 |
| COc1ccc(C2CC(c3ccccc3OC(C)=O)=NN2C(=O)/C=C/c2ccccc2)cc1OC (centres unmarked) | 13.1 |
| O=C(NC1CCCCC1)N(Cc1ccc(F)cc1)Cc1nc2ccccc2c(=O)[nH]1 | 6.34 |
| Cn1ccsc1=NC(=O)c1ccc(Cl)c([N+](=O)[O-])c1 | 10.4 |
| CC(C)N(Cc1ccccc1)C(=O)COC(=O)/C=C/c1cnc2ccccc2n1 | 6.92 |
